Measured values taken from the supplement of paper PMC11417369.
Some of the results follow.

The sequences below were run on PfAP2-HC AP2 domain (GST-tagged) (assay: gcPBM binding intensity (ln(normalized median fluorescence intensity)); higher = stronger DNA binding).
How it was run: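 Each value is the highest Masliner-normalised natural-log median intensity across replicate spots of either orientation of a probe. The probes were primer-extended double-stranded 36-bp intergenic genomic sequences on an Agilent 4 × 180k array, alongside negative controls, exposed for 1 h to GST-tagged P. falciparum DNA-binding domains expressed in E. coli. Bound protein was picked up with Alexa488 anti-GST antibody and scanned at 488 nm.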

In order of falling “gcPBM binding intensity (ln)” value:
1. ATATTATAGATATACACACACACATGCATGCACATA [CACACA_site6203]  10.6
2. TAAACACCCATATAAACACACATACATACATACATA [CACACA_site5383]  10.4
3. AAGGCAAACAAACACACACACATATATACCTATATA [CACACA_site5203]  10.4
4. TACATACATACATACACACACACATATATATATATA [CACACA_site42]  10.2
5. AAGGACAACAAACAAACACACACAAAAAAAAAATAA [CACACA_site9263]  10.2
6. GCCATTGTACCATCCACACACATATATATATGTATA [CACACA_site2704]  10.1
7. TATTTATAGATATATACACACATATACATATTGTTT [CACACA_site7611]  10.1
8. ATAAGAAGAAGAAAAACACACATATGTAAATATATA [CACACA_site3138]  10.1
9. AAAGCAAAAGGAAAATAACCAACCCTAATTAACACA [CACACA_negctrl_site530]  10
10. AGAAATGAAATCCAAAAACGAGGAACCAATAACGCA [CACACA_negctrl_site1758]  9.98
11. TTAATTTTTTTTTCTTGTACACACTATTTTATAATT [XGTACX_site8783]  9.96
12. GTTGCACAATGTTACACACACAATATATATCGTTAA [CACACA_site1275]  9.95
13. AAAAAAAATATATAAACACACATATTTATATACGCA [CACACA_site1631]  9.93
14. TATATATCTTTATGCACACACAAAGAAAATTTTCCT [CACACA_site7366]  9.92
15. CCCTTTTTTTTTTAATGTACATATAATTATATATTT [XGTACX_site8568]  9.88
16. AAATTAGACTATAATACACACATAAAAAAAAAAAAA [CACACA_site6155]  9.88
17. ATTTAGAATGTTCCTACACACCAAATTTAAGTGTGC [CACACA_site7161]  9.88
18. TAGTATTAAATATATACACACATATATACATATAGA [CACACA_site2154]  9.86
19. TACAAAATAACTAGCACACATATGTATAAACATATA [CACACA_site5948]  9.85
20. AAAGAAAAAAAAATTACACACATATATTATAGATAT [CACACA_site7495]  9.82
21. TGTAGAGCGCAAAGTAGTACTACAAATTATGGAGGG [XGTACX_site3022]  9.81
22. CCAAGAAACCAAAAAAGTACATACATGGTTATAATT [XGTACX_site4249]  9.8
23. GGAAACCTTTTTTTTACACACAATATATTAAGACTT [CACACA_site4899]  9.8
24. ACAATATGTATATATATATATATGCAAATGTATAAA [CACACA_negctrl_site53]  9.78
25. TTAAAACATAAAAAAAGTACATACAAATATATATAA [XGTACX_site789]  9.76
26. GCAGCAGCATTTTCAGTGCATTATTATATTGTTCAT [GTGCAC_site9926]  9.75
27. CAAAATGAAAGGAAAAGTACATTTAAATGAATAAAT [XGTACX_site8241]  9.75
28. TCTTATCCATATATTACACACTATATATAGAAATTA [CACACA_site291]  9.73
29. GTAATAAAATGACATACATGCATTACAATTATGTAA [TGCATGCA_site220]  9.72
30. AATTGTACGTAGGGGTATAAAAGCTTAAAAATGGGG [CACACA_negctrl_site1392]  9.72
31. AATTATATTACGAAATGTACATATAATAATGTATAT [XGTACX_site4410]  9.71
32. GATTAATTTAAAAAATGTACATTTTATTGTATAACC [XGTACX_site5539]  9.7
33. TAAAAATATATTATATGTACGTATAACAATGTATGA [XGTACX_site8606]  9.68
34. TATTATAATACTTATTGTACTTTTAGGTTAATTTAT [XGTACX_site995]  9.65
35. AGATGAACTAAAAAGGTGCTAAATATGTGACCACTG [GTGCAC_site9406]  9.64
36. AAGAATATAATCTTCACACATATATATATATATATA [CACACA_site5927]  9.62
37. TAATTAAATATTTCAGTGCATTATTTTATGATCCAT [GTGCAC_site9456]  9.6
38. TTAAATGGAAAAATATGTACATATATATATATATTT [XGTACX_site2286]  9.59
39. GTATAATATTCATATTCACACATTAAAATATATTTA [CACACA_site4879]  9.59
40. TATGTCAATCAAGCAAGTACATATATATATAAATAT [XGTACX_site7554]  9.58
41. ATATATGCTAATATATGTACTGATTATATCTCTTCA [XGTACX_site7156]  9.57
42. ATATAAACATTTAGTAATCCATATAGGTACTACTGA [CACACA_negctrl_site1249]  9.54
43. ACCTAATATTATTAAACATGCACATTTGCATAAATA [TGCATGCA_site870]  9.51
44. AACAGCATATCACATTTCTTCAAAAAAAAATAAAAT [CACACA_negctrl_site733]  9.47
45. TAGGTCCTCATTTTATGTACATAAAGAAATATGATT [XGTACX_site4138]  9.47
46. AGATATCTTGTGAAATAAAAAAAATAATTGCTTATA [CACACA_negctrl_site798]  9.46
47. GTTTGAATATATCAGGTGCATTTATAATTCATATGA  9.45
48. ATATTATATTATTAATGTACATATATATAATTTTAA [XGTACX_site4974]  9.44
49. TTCAAAACTTAAAATCGTACAAGACAATTATTATAT [XGTACX_site6626]  9.43
50. ATATTAAATTCAATTTAATGTTTTGTGAATTTTAGA [CACACA_negctrl_site1421]  9.39
51. TGAACTCATAGATTTAGTACATATATAAAAAAATTC [XGTACX_site1692]  9.38
52. TCCTTCGAAACTAAAATTCATTTAAAATATTGATAT [CACACA_negctrl_site369]  9.37
53. ATTAATTTAATTTGAATTATTTTATTATATTATTAT [XGTACX_negctrl_site10]  9.37
54. TTTTTTTTAGTATGAACACACATATAGATTATAAAA [CACACA_site7391]  9.36
55. TTTGTTAAAAATATATTATGAATAAAAATATATTTT [CACACA_negctrl_site170]  9.33
56. GTGTACTTTTAAATAGTGCATTTTACAATAATAAAA [GTGCAC_site9653]  9.32
